# Results as given in publication PMC4242493.
# The other results are listed elsewhere or left out. The list includes weakly bound sequences.
# Biological target: MaxL homodimer (UniProt P61244)
# Assay: universal protein-binding microarray (PBM)
# Settings: PBS-based mixture, 10 nM His-tagged protein dimer, 2% milk, 200 ng/uL BSA, 50 ng/uL salmon testes DNA, 0.02% TX-100; detection with Alexa 488 anti-His …; high values mean tight binding; most listed sequences are background and not binding sites; double strand, one strand shown
# Sequence of UniProt P61244 (P61244 whole entry): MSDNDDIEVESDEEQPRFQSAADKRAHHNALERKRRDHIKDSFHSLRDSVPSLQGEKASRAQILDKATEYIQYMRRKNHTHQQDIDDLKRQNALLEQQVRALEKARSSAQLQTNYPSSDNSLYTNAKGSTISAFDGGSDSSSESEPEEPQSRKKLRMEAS
row,Sequence,binding signal (normalized occupancy)
1,AAACCGTC,0.0684
2,GGCCTCCA,0.0698
3,TGACATCA,0.0834
4,GGATAGGA,0.0793
5,AGCCTACA,0.0751
6,CCCTAATC,0.0793
7,CAATCCAC,0.08
8,ACTGTGGC,0.0717
9,CAGACATG,0.0872
10,CAGTTGAC,0.0741
11,ATGCCACC,0.0841
12,ACCAAGGC,0.0726
13,CCCTTTCG,0.0705
14,ATGGCTTA,0.0763
15,ACCTATTG,0.0786
16,GAACTAGC,0.0682
17,GTTGATCA,0.0828
18,GCCTGCCA,0.072
19,CCAGTTCA,0.0721
20,ACAATTTA,0.0774
21,CATCTTCG,0.0743
22,GTTTGATA,0.0778

row,Sequence,binding signal (normalized occupancy)
1,TCAGAGGA,0.0732
2,GAAAGACA,0.0725
3,GCTCCTCC,0.0704
4,AGTAGTAT,0.0771
5,AACAGCGA,0.0748
6,CCCCGAGC,0.076
7,CGCAGTCA,0.0756
8,TCCCGAAA,0.0756
9,AGGGTCCA,0.0731
10,CATCGATC,0.0786
11,AGTAAGCC,0.0703
12,CCAGCCTC,0.0759
13,ATGGCGCC,0.0751
14,AATCGTAT,0.0799
15,GACGAAGC,0.0723
16,CTGCCGAC,0.0704
17,CTGATCCA,0.0828
18,CGTGAAAG,0.0855
19,CTACCACC,0.0824
20,ACACTCCC,0.0794
21,CGCGACAC,0.0749
22,AGGAACGA,0.0744

row,Sequence,binding signal (normalized occupancy)
1,AGTATTCA,0.0798
2,AAATGAGT,0.079
3,CTAGCCAA,0.0693
4,GCCTTTAA,0.0723
5,AGTGACGC,0.0753
6,AGGGAATC,0.0755
7,AAGCCCGT,0.0737
8,GCCTACCC,0.0797
9,ATATGTCC,0.0855
10,GCATAATA,0.0803
11,GCACGGAC,0.0746
12,GAGACCAA,0.0679
13,CCGATTAA,0.0728
14,ACACCTCT,0.0739
15,CCCCACAG,0.0785
16,ATGGGCTG,0.0762
17,CTCTGTCA,0.0747
18,GTCGGTCA,0.0724
19,CGCTGACC,0.069
20,CGGCTTAG,0.0692
21,ACCGACAA,0.0767
22,GAACGGTC,0.0707

row,Sequence,binding signal (normalized occupancy)
1,ACTTCCTG,0.0713
2,AATCGTGC,0.0839
3,ACAGCGGC,0.0731
4,CCGCGAGC,0.0693
5,AAAACTAA,0.073
6,CAACGACC,0.0709
7,AGCTTCCT,0.0666
8,GAGAATAA,0.0755
9,AGGAAAAG,0.0736
10,CACTCTTA,0.0778
11,CGTTGACC,0.0795
12,AGGGGTTC,0.0749
13,ACAATTGC,0.0792
14,GGTGATGA,0.0784
15,CGATCTAC,0.0779
16,ATCTGTTG,0.0749
17,CTCTACGC,0.0747
18,GCGTCCTA,0.0734
19,CCTTTATA,0.0822
20,CCTGAGCC,0.0719
21,CCTACCGC,0.0703
22,CCCTTCCA,0.0717

row,Sequence,binding signal (normalized occupancy)
1,CGACGGAA,0.069
2,AGTATTGC,0.0781
3,AAAGATAG,0.0726
4,GAAGGTGC,0.0733
5,ATTTATAG,0.0799
6,AATGATAC,0.0763
7,GCAGCACA,0.0778
8,GTCGTTAA,0.0738
9,TAAATCAA,0.0716
10,GAGGCCTA,0.075
11,CTAAGCAG,0.0671
12,GCAAGGGA,0.0715
13,ACATCGTG,0.0998
14,AATCTAGC,0.0807
15,TCGAATCA,0.075
16,CATAGAGA,0.074
17,ACCGAAGA,0.0716
18,GTAGAGGA,0.0732
19,CGGGCAGA,0.069
20,CTACTGCC,0.0744
21,GACTTTTA,0.0753
22,CTCGATCC,0.0727
